Results published in the supplement of paper PMC4996465.

Legend:
KB3-1 [1] = assay: viability (% of DMSO control); higher = more viable cells
Protocol: (§1)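 Eleven-dose screen of the NCATS MIPE 3 library on cells without co-treatment; CellTiter-Glo after 48 h, as % of DMSO wells.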

Nalm-6 [2] = assay: as above
Protocol: as §1

KB3-1 [3] = assay: log AC50 of viability decrease (48 h) (log10 M); higher = less potent
Protocol: (§2)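 Eleven-dose screen of the NCATS MIPE 3 library on cells without co-treatment; CellTiter-Glo after 48 h. AC50 from the curve fit; only inhibitory curves of the better fit classes are listed.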

Nalm-6 [4] = assay: as above
Protocol: as §2

Row | SMILES | viability (KB3-1 [1]; 0.00078 µM) [%] | viability (KB3-1 [1]; 0.00234 µM) [%] | viability (KB3-1 [1]; 0.00702 µM) [%] | viability (KB3-1 [1]; 0.0211 µM) [%] | viability (KB3-1 [1]; 0.0632 µM) [%] | viability (KB3-1 [1]; 0.19 µM) [%] | viability (KB3-1 [1]; 0.569 µM) [%] | viability (KB3-1 [1]; 1.71 µM) [%] | viability (KB3-1 [1]; 5.12 µM) [%] | viability (KB3-1 [1]; 15.4 µM) [%] | viability (KB3-1 [1]; 46.1 µM) [%] | viability (Nalm-6 [2]; run: 1, 0.00078 µM) [%] | viability (Nalm-6 [2]; run: 1, 0.00234 µM) [%] | viability (Nalm-6 [2]; run: 1, 0.00702 µM) [%] | viability (Nalm-6 [2]; run: 1, 0.0211 µM) [%] | viability (Nalm-6 [2]; run: 1, 0.0632 µM) [%] | viability (Nalm-6 [2]; run: 1, 0.19 µM) [%] | viability (Nalm-6 [2]; run: 1, 0.569 µM) [%] | viability (Nalm-6 [2]; run: 1, 1.71 µM) [%] | viability (Nalm-6 [2]; run: 1, 5.12 µM) [%] | viability (Nalm-6 [2]; run: 1, 15.4 µM) [%] | viability (Nalm-6 [2]; run: 1, 46.1 µM) [%] | viability (Nalm-6 [2]; run: 2, 0.00078 µM) [%] | viability (Nalm-6 [2]; run: 2, 0.00234 µM) [%] | viability (Nalm-6 [2]; run: 2, 0.00702 µM) [%] | viability (Nalm-6 [2]; run: 2, 0.0211 µM) [%] | viability (Nalm-6 [2]; run: 2, 0.0632 µM) [%] | viability (Nalm-6 [2]; run: 2, 0.19 µM) [%] | viability (Nalm-6 [2]; run: 2, 0.569 µM) [%] | viability (Nalm-6 [2]; run: 2, 1.71 µM) [%] | viability (Nalm-6 [2]; run: 2, 5.12 µM) [%] | viability (Nalm-6 [2]; run: 2, 15.4 µM) [%] | viability (Nalm-6 [2]; run: 2, 46.1 µM) [%] | log AC50 of viability decrease (KB3-1 [3]) | log AC50 of viability decrease (Nalm-6 [4]; run: 1) | log AC50 of viability decrease (Nalm-6 [4]; run: 2)
1 | CCn1c(-c2nonc2N)nc2cnc(Oc3cccc(NC(=O)c4ccc(OCCN5CCOCC5)cc4)c3)cc21 | 93.7 | 91.3 | 87.8 | 92.5 | 94.2 | 88.3 | 84.4 | 76.5 | 69 | 62.7 | 48.9 | 91.9 | 101 | 90.5 | 84.4 | 84.9 | 75.5 | 75 | 56.8 | 62.3 | 54.9 | 4.15 | 99 | 99.4 | 101 | 102 | 91.8 | 93.2 | 82.7 | 78.8 | 83.6 | 54.8 | 2.74 | -5.13 | -4.73 | -4.73
2 | O=C(C1CC1)N1CC[C@@H](Cn2c(-c3ccc(-c4ccc5occc5c4)cc3)nc3cnccc32)C1 | 108 | 106 | 108 | 113 | 110 | 113 | 107 | 103 | 100 | 88.7 | 73.5 | 124 | 120 | 124 | 116 | 112 | 120 | 112 | 103 | 99.5 | 87.2 | 13.2 | 114 | 110 | 109 | 114 | 112 | 108 | 116 | 101 | 98.3 | 82.2 | 20.9 | -4.78 | -4.68 | -4.68
3 | COc1cc(Oc2ccnc3cc(OC)c(OC)cc23)ccc1NC(=O)NC(C)c1nccs1 (stereo not drawn) | 100 | 106 | 104 | 106 | 108 | 103 | 107 | 98.8 | 99 | 91.9 | 61 | 86.4 | 96.8 | 106 | 108 | 105 | 122 | 125 | 112 | 109 | 97.6 | 48.2 | 109 | 110 | 124 | 108 | 113 | 117 | 112 | 116 | 110 | 96.3 | 72.5 | -4.68 | – | -4.78
4 | CN(C)C[C@@H]1CCn2cc(c3ccccc32)C2C(=O)NC(=O)C2c2cn(c3ccccc23)CCO1 (stereo partly drawn) [Ruboxistaurin mesilate] | 95.3 | 98 | 96.7 | 94.7 | 90.6 | 96.3 | 93.4 | 84.6 | 84.2 | 79.1 | 1.73 | 90.7 | 113 | 98.5 | 94.9 | 100 | 97.6 | 104 | 82.9 | 81.7 | 82.8 | 1.44 | 104 | 111 | 104 | 103 | 103 | 99 | 105 | 98.4 | 91.8 | 63.5 | 1.73 | -4.63 | -4.63 | -4.73
5 | CCCCCN(CCC12CC3CC(CC(C3)C1)C2)C(=O)NCCCc1ccncc1 [DE-096] | 102 | 102 | 98.6 | 93.4 | 101 | 103 | 98.8 | 93.4 | 95.5 | 84 | 1.38 | 106 | 104 | 96.9 | 93.2 | 75.4 | 65.2 | 16.8 | 2.46 | -0.869 | -1.27 | -1.86 | 97.9 | 104 | 111 | 104 | 104 | 104 | 117 | 102 | 94.7 | 32 | 1.5 | -4.63 | -6.63 | -4.93
6 | CCC(=O)N1CCN(CC1)C2=C(C=C(C=C2)N3C(=O)\C=C/C4=C3C5=CC(=CC=C5N=C4)C6=CN=C7C=CC=CC7=C6)C(F)(F)F [Torin-1] | 96.1 | 104 | 86.4 | 74.9 | 55.4 | 47.2 | 43.8 | 45.3 | 47.6 | 45.8 | 42.4 | 100 | 100 | 89.4 | 79.5 | 73.5 | 62.7 | 67.8 | 60.2 | 54.9 | 42.9 | 5.19 | 107 | 113 | 101 | 97.6 | 76.5 | 70.7 | 72.2 | 60.8 | 39.4 | 27.1 | 3.49 | -7.68 | -5.23 | -5.38
7 | CO[C@H]1/C=C\C=C(\C)C(=O)NC2=CC(=O)C(NCCN(C)C)=C(C[C@@H](C)C[C@H](OC)[C@H](O)[C@@H](C)/C=C(/C)[C@@H]1OC(N)=O)C2=O [Alvespimycin hydrochloride] | 101 | 56.9 | 62.3 | 66 | 60 | 66 | 56.4 | 57.5 | 17.7 | 12.5 | 3.79 | 91.9 | 67.7 | 44.3 | 33.8 | 20.6 | 20.4 | 14 | 16.4 | 6.36 | 6.36 | 2.61 | 101 | 76.4 | 48.7 | 33.9 | 22.1 | 20.8 | 11.8 | 11.5 | 6.27 | 4.47 | 2.51 | -5.48 | -8.28 | -8.23
8 | CNC(=O)N1\N=C(\C2=CC=C(N)C=C2)C3=CC4=C(OCO4)C=C3CC1C (stereo not drawn) | 101 | 106 | 107 | 106 | 106 | 106 | 101 | 88.4 | 77.5 | 63 | 52.6 | 127 | 133 | 124 | 123 | 125 | 129 | 117 | 77 | 63.1 | 49.1 | 23.4 | 107 | 106 | 112 | 106 | 107 | 109 | 8.74 | 58.4 | 33.7 | 17.2 | 1.65 | -5.28 | -5.53 | –
9 | Cc1ccc(F)c(NC(=O)Nc2ccc(-c3cccc4[nH]nc(N)c34)cc2)c1 [Linifanib] | 103 | 105 | 104 | 99.3 | 105 | 104 | 111 | 101 | 71.2 | 42.4 | 5.2 | 97.5 | 106 | 109 | 113 | 100 | 109 | 106 | 108 | 56.4 | 23.4 | 3.28 | 103 | 108 | 101 | 110 | 107 | 101 | 100 | 92.5 | 51.3 | 13.5 | 2.46 | -4.88 | -5.28 | -5.28
10 | C[C@H]1[C@@H](C(=O)C[C@H]2O[C@@H]3O[C@]4(C)CC[C@H]5[C@H](C)CC[C@@H]([C@H]2C)[C@@]35OO4)O[C@@H]2O[C@]3(C)CC[C@H]4[C@H](C)CC[C@@H]1[C@@]24OO3 [BTM-2C-dimer ketone] | 96.3 | 96.2 | 98.5 | 92.3 | 98.5 | 67.6 | 51.4 | 45.3 | 44.7 | 39.7 | 39.3 | 84.2 | 91.4 | 89.9 | 53.5 | 36.2 | 16.3 | 18.3 | 17.8 | 15.8 | 22.2 | 12.9 | 93.2 | 99.2 | 95 | 64.2 | 21.8 | 10.8 | 10.1 | 10.2 | 12 | 11.6 | 8.38 | -6.68 | -7.58 | -7.58

Counter-ions that a name gives are not always drawn. Viability of KB3-1 and Nalm-6 cells after 48 h of drug alone (CellTiter-Glo), 11 doses over about 4.5 log units. % of DMSO wells, lower = more cell loss; AC50 from the fitted curve, lower = more potent. No active / inactive call. Nalm-6 was screened in two runs. AC50 is listed only for well-fitted inhibitory curves. KB3-1 is a HeLa-derived carcinoma line, Nalm-6 a B-cell precursor leukaemia line.
